In PubChem BioAssay AID1346428 (National Center for Advancing Translational Sciences (NCATS), 2018) one finds activation data, which are given here for 23 compounds.

The whole screen tested about 48,000 compounds, of which about 1,200 (2.5%) were called active. About 2% were inconclusive and are not listed.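 Rule for the calls: active = activation of at least 60% and not above a set upper limit (about 1 call in 100 departs from these limits); inconclusive = activation of 40% to 60%, or above that upper limit; inactive = activation under 40%.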 The list shows a part of the results.

Sequence of UniProt O75388 (O75388 whole entry, looked up, the tested form may be a part): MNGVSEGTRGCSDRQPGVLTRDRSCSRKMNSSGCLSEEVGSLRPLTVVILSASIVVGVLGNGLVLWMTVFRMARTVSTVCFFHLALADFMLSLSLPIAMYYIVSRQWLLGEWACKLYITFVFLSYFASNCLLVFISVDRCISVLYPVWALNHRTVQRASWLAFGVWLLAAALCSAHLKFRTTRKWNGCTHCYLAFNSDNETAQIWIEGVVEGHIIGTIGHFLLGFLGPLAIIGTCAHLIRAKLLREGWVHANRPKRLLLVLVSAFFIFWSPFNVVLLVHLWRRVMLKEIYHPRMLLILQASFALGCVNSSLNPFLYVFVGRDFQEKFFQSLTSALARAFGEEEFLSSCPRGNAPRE

The assay has as its target Probable G-protein coupled receptor 32 (Homo sapiens) (UniProt O75388). The assay can be described thus: qHTS for Agonists of Human Resolvin D1 Receptor DRV1. Note: 0% is about no effect. The conditions noted are these: CHO-K1 GPR32 beta-arrestin PathHunter luminescence, 90 min; at 76.9 µM; active compounds read high; zero percent set by DMSO-only wells. The essentials:
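Agonism was scored by beta-Gal fragment complementation (chemiluminescent read, 1 h detection at ambient temperature) reporting beta-arrestin binding to GPR32 in engineered CHO-K1 cells. Compound treatment lasted 90 min at 37 C, normalized to a DMSO basal control.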
As for `COCCCNC(=O)CCc1c(C)nc2nc(-c3cc(OC)cc(OC)c3)nn2c1C`, the activation was inactive: 2.16%.

In the case of `COCc1c(C(C)C)nc(C(C)C)c(/C=C/[C@@H](O)C[C@@H](O)CC(=O)O)c1-c1ccc(F)cc1`, the activation is inactive: 49.5%.

As to `CC(C)OCCCNC(=O)CN1C(=O)COc2ccc(S(=O)(=O)N3CCCCCC3)cc21`, the activation is inactive: -25.8%.

In the case of `CC(C)NC(=O)N1CCN(S(=O)(=O)c2ccc3c(ccn3C)c2)CC1`, the activation is inactive: 9.59%.

For the compound `Cc1ccc(C)c(NC(=O)CN(C)S(=O)(=O)c2ccc3c(c2)CCC(=O)N3)c1`, the activation was inactive: 7.35%.

`CCOC(=O)c1cc(-c2ccc(OC)cc2)n(CCC(=O)NCc2ccc(OC)cc2)c1C`: the activation was inactive: -24%.

On to `COc1ccc(C(=O)NCc2cccnc2)cc1C(=O)NCc1cccnc1`, for which the activation was inactive: -8.88%.

`Cc1ccccc1C(=O)Nc1nnc2n1CCS2`: the activation was inactive: 11.7%.

Turning to `CCCS(=O)(=O)c1nc(S(=O)(=O)c2ccc(C)cc2)c(N(C)Cc2ccccc2)s1`, the activation was inactive: -23.3%.

`COc1cccc(-c2ccc3c(N)c(C(=O)Nc4cc(C(F)(F)F)ccc4OC)sc3n2)c1`: the activation was inactive: 6.66%.

Take `CCOC(=O)c1sc(NC(=O)C2c3ccccc3Oc3ccccc32)c(C#N)c1C`: the activation was inactive: 2.55%.

`Cc1cc(C(=O)N2CCN(c3cccc(C)c3C)CC2)c2c(C)nn(-c3ccccc3)c2n1`: the activation is inactive: -10.8%.

Consider `CCOC(=O)c1c(C)[nH]c(C)c1S(=O)(=O)N1CCCC(C(=O)NCc2cccc(OC)c2)C1` (stereo not drawn), for which the activation is inactive: 17.4%.

`CCCC(=O)NC(C)c1nc2ccccc2n1Cc1ccccc1` (stereo not drawn): the activation was inactive: 18.9%.

`Cc1ccc(C(=O)c2cn(CC(=O)NCc3ccccc3Cl)c3nc(C)ccc3c2=O)cc1`: the activation is inactive: -2.2%.

For `COc1ccc(S(=O)(=O)N2CCCN(CC(=O)Nc3ccc(OC)cc3OC)CC2)cc1`, the activation was inactive: 15.3%.

Regarding `COc1ccccc1CNC(=O)CCC1N=C2c3ccccc3N=C(SCC(=O)Nc3ccc(N(C)C)cc3)N2C1=O` (stereo not drawn), the activation was inactive: -0.866%.

As to `Cc1c(C(=O)N(C)C)sc2c1c(=O)n(-c1ccc(Cl)cc1)c(=O)n2Cc1ccccc1F`, the activation was inactive: -1.45%.

In the case of `CCOC(=O)C1CCC(CN(Cc2ccccc2)S(=O)(=O)c2ccc(Br)cc2)CC1` (stereo not drawn), the activation was inactive: -22%.

For `Cc1ccccc1Nc1c(-c2cc(Br)ccc2F)nc2ccccn12`, the activation was inactive: -34.4%.

For the compound `COc1ccc(/C=C/c2nc(C#N)c(NCc3ccc(F)cc3)o2)cc1OC`, the activation is inactive: -18.4%.

As for `CCOc1ccc(-c2cc(C(=O)Oc3ccc(C#N)cc3)no2)cc1`, the activation was inactive: 1.3%.

For `COc1cc(NC(=O)CCS(=O)(=O)c2ccc3c(c2)CC(=O)N3C)cc(OC)c1OC`, the activation is inactive: -7.22%.
